B1: lipocalin mutein SEQ ID NO: 62 (designed binder)
chain: ASDEEIQDVSGTWYLKAMTVDRFKIASWPRSVTPMTLTTLEGGNLEAKVTMNWWGRSQEVKAVLERTDEPGKYTAQGDRHVAYIIRSPVKDHYIFYSEGNLQGETVPGVWLVGRDPKNNLEALEDFEKAAGARGLSTESILIPRQSETSSPGSAWSHPQFEK
B2: lipocalin mutein SEQ ID NO: 8 (designed binder)
chain: ASDEEIQDVSGTWYLKAMTVDFKGPTPLWTSVTPMTLTTLEGGNLEAKVTMFHAGRSQEVKAVLEKTDEPGKYTAYGGRHVAYIIRSHVKDHYIFYSEGASVGNPVPGVWLVGRDPKNNLEALEDFEKAAGARGLSTESILIPRQSETSSPGSAWSHPQFEK
notes: human tear lipocalin mutein
B3: lipocalin mutein SEQ ID NO: 82 (designed binder)
chain: GASDEEIQDVSGTWYLKAMTVDRFKIASWPRSVTPMTLTTLEGGNLEAKVTMNWWGRSQEVKAVLERTDEPGKYTAQGDRHVAYIIRSHVKDHYIFYSEGNLQGETVPGVWLVGRDPKNNLEALEDFEKAAGARGLSTESILIPRQSETSSPG
B4: lipocalin mutein SEQ ID NO: 83 (conjugated to an albumin binding protein) (designed binder)
chain: ASDEEIQDVSGTWYLKAMTVDRFKIASWPRSVTPMTLTTLEGGNLEAKVTMNWWGRSQEVKAVLERTDEPGKYTAQGDRHVAYIIRSPVKDHYIFYSEGNLQGETVPGVWLVGRDPKNNLEALEDFEKAAGARGLSTESILIPRQSETSSPGGGGSLAEAKEAANAELDSYGVSDFYKRLIDKAKTVEGVEALKDAILAALPG
B5: lipocalin mutein SEQ ID NO: 84 (conjugated to an albumin binding protein) (designed binder)
chain: GASDEEIQDVSGTWYLKAMTVDRFKIASWPRSVTPMTLTTLEGGNLEAKVTMNWWGRSQEVKAVLERTDEPGKYTAQGDRHVAYIIRSHVKDHYIFYSEGNLQGETVPGVWLVGRDPKNNLEALEDFEKAAGARGLSTESILIPRQSETSSPGKLGGGGSLAEAKEAANAELDSYGVSDFYKRLIDKAKTVEGVEALKDAILAALPGKLN
B6: negative control SEQ ID NO: 2 (designed binder)
chain: ASDEEIQDVSGTWYLKAMTVDREFPEMNLESVTPMTLTTLEGGNLEAKVTMLISGRSQEVKAVLEKTDEPGKYTADGGKHVAYIIRSHVKDHYIFYSEGELHGKPVPGVWLVGRDPKNNLEALEDFEKAAGARGLSTESILIPRQSETSSPGSAWSHPQFEK

Key:
[1] = biological target: T1, human PCSK9 (SEQ ID NO: 34) containing a C-terminal FLAG tag (human, UniProt Q8NBP7 31-152; Q8NBP7 153-692); assay: cell free TR-FRET, 20 nM biotin-hPCSK9 and Eu-LDLR, without HSA
T1 construct: Secreted from HEK293F cells; also called hPCSK9; hPCSK9 wt; not shown: C-terminal FLAG tag

[2] = biological target: T1, human PCSK9 (SEQ ID NO: 34) containing …; assay: SPR (Biacore T200), biotinylated PCSK9 captured, 1:1 Langmuir model
[3] = biological target: T1, human PCSK9 (SEQ ID NO: 34) containing …; assay: SPR (Biacore T200), biotinylated human PCSK9 captured, 1:1 model
[4] = biological target: T1, human PCSK9 (SEQ ID NO: 34) containing …; assay: cell free TR-FRET, 20 nM biotin-hPCSK9 and Eu-LDLR, with 34 mg/ml HSA
[5] = biological target: T2, gain of function hPCSK9_D374Y mutant (human, UniProt Q8NBP7 31-152; Q8NBP7 153-692); assay: competition ELISA, 0.25 nM hPCSK9_D374Y pre-incubated with mutein, LDL-R-coated plate
T2 construct: also called human PCSK9_D374Y; not shown: FLAG tag

[6] = biological target: T1, human PCSK9 (SEQ ID NO: 34) containing …; assay: SPR (Biacore T200), biotinylated PCSK9 captured, 1:1 model
[7] = biological target: T1, human PCSK9 (SEQ ID NO: 34) containing …; assay: competition ELISA, 25 nM hPCSK9 pre-incubated with mutein, LDL-R-coated plate
[8] = biological target: T1, human PCSK9 (SEQ ID NO: 34) containing …; assay: cell-based or functional assay
mouse PCSK9 [9] = biological target: T3, mouse PCSK9 (mouse, UniProt Q80W65 35-694, limits assumed); assay: binding ELISA, biotinylated PCSK9 on Neutravidin plate
T3 construct: biotinylated in the assays; also called mPCSK9

[10] = biological target: T2, gain of function hPCSK9_D374Y mutant; assay: as above
[11] = biological target: T1, human PCSK9 (SEQ ID NO: 34) containing …; assay: as above
human serum albumin = biological target: T4, human serum albumin (human, UniProt P02768 25-609); assay: SPR (Biacore_Anti HSA); set-up not described
T4 construct: also called HSA

[12] = biological target: T2, gain of function hPCSK9_D374Y mutant; assay: competition ELISA on LDL-R-coated plate
[13] = biological target: T1, human PCSK9 (SEQ ID NO: 34) containing …; assay: competition ELISA on LDL-R-coated plate
mouse PCSK9 [14] = biological target: T3, mouse PCSK9; assay: binding ELISA, biotinylated PCSK9 on Neutravidin plate; remark: listed apart in the source
T3 sequence (Q80W65 35-694 limits assumed): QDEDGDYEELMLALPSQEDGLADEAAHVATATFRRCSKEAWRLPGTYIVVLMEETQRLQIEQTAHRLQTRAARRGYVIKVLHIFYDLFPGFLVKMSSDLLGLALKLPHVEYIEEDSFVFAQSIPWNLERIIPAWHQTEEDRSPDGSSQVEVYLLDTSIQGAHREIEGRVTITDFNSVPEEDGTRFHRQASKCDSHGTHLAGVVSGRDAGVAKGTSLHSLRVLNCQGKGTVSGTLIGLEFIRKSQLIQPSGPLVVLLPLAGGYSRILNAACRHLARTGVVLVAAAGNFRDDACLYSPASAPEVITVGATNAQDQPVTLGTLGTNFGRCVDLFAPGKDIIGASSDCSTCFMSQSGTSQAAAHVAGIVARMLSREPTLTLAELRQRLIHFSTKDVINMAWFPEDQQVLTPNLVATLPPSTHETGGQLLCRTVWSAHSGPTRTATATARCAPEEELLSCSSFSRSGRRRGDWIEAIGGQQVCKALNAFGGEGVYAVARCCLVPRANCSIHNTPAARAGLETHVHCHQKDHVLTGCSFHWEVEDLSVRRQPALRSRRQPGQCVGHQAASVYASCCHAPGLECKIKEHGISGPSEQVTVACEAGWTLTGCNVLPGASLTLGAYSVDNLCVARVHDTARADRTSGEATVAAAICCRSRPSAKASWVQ

Binder	IC50 [1] [nM]	Kd [2] [nM]	koff [2] [s⁻¹]	kon [2] [M⁻¹ s⁻¹]	IC50 [4] [nM]	Kd (human serum albumin) [nM]	koff (human serum albumin) [s⁻¹]	kon (human serum albumin) [M⁻¹ s⁻¹]	further results
B1	1.36	0.26	0.00029	1.1e+06	0.93	–	–	–	Kd [3]: 0.33 nM; koff [3]: 0.000165 s⁻¹; kon [3]: 498000 M⁻¹ s⁻¹
B2	–	–	–	–	–	–	–	–	IC50 [5]: 0.32 nM; Kd [6]: 8.96 nM; koff [6]: 0.00138 s⁻¹; kon [6]: 154000 M⁻¹ s⁻¹; IC50 [7]: 10.7 nM; IC50, restoration of labeled LDL uptake in HepG2 cells with 100 nM hPCSK9 [8]: 81.2 nM; EC50 (mouse PCSK9 [9]): 10.1 nM; EC50 [10]: 1.4 nM; EC50 [11]: 4.4 nM
B3	1.68	0.25	0.00037	1.5e+06	1.33	–	–	–	–
B4	1.93	0.38	0.00027	710000	1.26	0.019	4.2e-05	2.2e+06	–
B5	1.09	0.39	0.0003	750000	1.09	0.013	3e-05	2.4e+06	–
B6	–	–	–	–	–	–	–	–	binding result [12]: no binding (tested: starting concentration of 300 nM); binding result [13]: no binding (tested: starting concentration of 300 nM); binding result (mouse PCSK9 [14]): no binding (tested: 100 nM)

Reference: patent publication US20170173112A1 (Daiichi Sankyo, published 2017)
